# Data as given in PubChem BioAssay AID686979 (National Center for Advancing Translational Sciences (NCATS), 2013).
# “And” between values parts separate entries of the source, which are not always exact repeats. Equal entries are not always repeated. About 50,000 (12%) of roughly 420,000 compounds were called active. Inconclusive results, whose numbers are uncertain, are shown with a selection of clear calls. The call rests on the fitted dose curve; in most records, active means well fitted inhibition curve with a large enough effect; inconclusive means small, poorly fitted or top-dose-only effect; inactive means flat fitted curve, though single readings scatter. A potency beside an inconclusive call is a rough fit, not a confirmed value.
# Assay: qHTS for Inhibitors of human tyrosyl-DNA phosphodiesterase 1 (TDP1): qHTS in cells in presence of CPT; further: nearly all actives have a fitted effect of over 55% in size
# Conditions: chicken DT40 Tdp1-/-;hTDP1 cells + 20 nM CPT, ATP luminescence, 48 h; activity change, negative = growth inhibition: at 46.2 µM (top of the series) unless noted
# Procedure, shortened: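 Chicken DT40 Tdp1-/- cells stably complemented with human TDP1 were seeded at 400 cells/well in medium containing 20 nM camptothecin, exposed to pin-transferred compounds, and grown at 37 °C for at least 48 hr. Viability was read as ATP luminescence.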
# On the % scale 0 is the no-effect control and ±100 the full control effect; potency means the concentration at half of the fitted maximal effect; tags describe the fitted curve by direction and shape.
SMILES,Potency,"activity change, negative = growth inhibition"
CC1(c2ccccc2)NC(=O)N(CC(=O)Nc2cc(C(F)(F)F)ccc2N2CCCCC2)C1=O (stereo not given),"inconclusive: 29.1 µM [inhibitor, single point]",–
COc1ccccc1C(=O)NC1CCSc2ccccc21 (stereo not given),"inconclusive: 29.1 µM [inhibitor, single point]",–
CCc1c(CN2CCN(c3ccc(F)cc3)CC2)csc1C,"inconclusive: 29.1 µM [inhibitor, single point]",–
Cn1cccc1C(=O)N1CCC2(CC1)CCN(c1ccccn1)CC2,"inconclusive: 18.4 µM [inhibitor, single point]",–
O=S(=O)(c1ccccc1F)N(Cc1ccco1)Cc1nnc(-c2ccccc2Br)o1,"inconclusive: 16.4 µM [inhibitor, single point]",–
COc1ccccc1-c1cc(C(F)(F)F)nc(S(=O)(=O)CCCC(=O)Nc2ccccc2F)n1,active: 2.59 µM,–
CCOC(=O)C1CCN(C2CCN(C(=O)c3oc4c(C)c(C)ccc4c3C)CC2)CC1,"inconclusive: 14.6 µM [inhibitor, single point]",–
CC1CCc2c(N3CCC(O)CC3)c(F)cc3c(=O)c(C(=O)O)cn1c23 (stereo not given),"inactive and inconclusive: 10.3 µM [inhibitor, partial curve, poor fit]",–
O=c1c2ccccc2ncn1-c1ccc(Cl)cc1[N+](=O)[O-],–,inconclusive: -31.3% [inhibitor]
Cn1cccc1Cc1nnc(SCC(=O)Nc2cccc(Cl)c2)n1-c1ccc(F)cc1,"inconclusive: 29.1 µM [inhibitor, single point]",–
CC(=O)c1ccc(F)c(-c2cc(C)cc3c2OC(CNC(=O)c2cnc4ccccn4c2=O)C3)c1 (stereo not given),"inconclusive: 6.51 µM [inhibitor, single point]",–
CCc1ccc(NC(=O)CSc2nnc(Cc3cccn3C)n2-c2ccc(F)cc2)cc1,"inconclusive: 20.6 µM [inhibitor, single point]",–
COc1ccc(NC(=O)c2sc3nc(C)c(C(=O)Nc4ccc(C)cc4C)c(-c4sccc4C)c3c2N)cc1,inactive,–
O=C(COCc1ccccc1)N[C@@H]1c2ccccc2CC[C@H]1OCc1ccccc1,"inconclusive: 29.1 µM [inhibitor, partial curve, poor fit]",–
COc1cccc(N=Nc2c(N)[nH]n3c(=O)cc(-c4ccccc4)nc23)c1,active: 9.2 µM,–
COc1cc2c(cc1NC(=O)COc1cc(C)cc(C)c1)oc1ccccc12,inactive,–
Cc1cc(C)c(O)c(NC(=S)NC(=O)Cc2ccccc2)c1,"inconclusive: 29.1 µM [inhibitor, single point]",–
O=C(COc1ccc(Cl)cc1)NCCc1csc(-c2ccc(C(F)(F)F)cc2)n1,"inconclusive: 29.1 µM [inhibitor, single point]",–
CCn1c2ccccc2c2cc(NC(=O)CN(C)CC(=O)Nc3ccc(N4CCOCC4)cc3)ccc21,"inconclusive: 29.1 µM [inhibitor, single point]",–
Cc1ccc(S(=O)(=O)N(C)C)cc1NC(=S)N(CCC#N)Cc1cccnc1,inactive,–
COC(=O)c1ccccc1NC(=S)NC(NC(=O)c1ccco1)C(Cl)(Cl)Cl (stereo not given),inactive,–
Cc1cc(Nc2ccccc2C(=O)O)n2ncnc2n1,inactive,–
CCN1CCN(c2nc(N)c([N+](=O)[O-])c(Nc3ccc(C)c(C)c3)n2)CC1,"inconclusive: 25.9 µM [inhibitor, single point]",–

SMILES,Potency,"activity change, negative = growth inhibition"
O=C(CN1C(=O)NC(CCc2ccccc2)C1=O)Nc1ccccc1C(F)(F)F (stereo not given),inactive,–
C=CCOc1c(CNC2CCCC2)cc(Cl)cc1OC,"inconclusive: 25.9 µM [inhibitor, partial curve]",–
O=c1nc(N2CCCC2)nc(Nc2ccccc2)[nH]1,inactive,–
Cc1cc(C)n2nc(Sc3ncccc3[N+](=O)[O-])nc2n1,"inconclusive: 20.6 µM [inhibitor, single point]",–
CCn1c(CNc2ccc(Cl)cc2)nnc1SCCN1CCCCC1,active: 20.6 µM,–
CCc1ccc(NC(=O)Cc2c(C(=O)O)n(C)c3ccccc23)cc1,inactive,–
O=C(Cn1c2[n+](c3ccc(C(F)(F)F)cc31)CCCCC2)Nc1ccccc1,–,inconclusive: -30.3% [inhibitor]
CC1CCCCN1C(=O)CCC(=O)Nc1nnc(C(F)(F)F)s1 (stereo not given),inactive,–
CCc1cc(=O)oc2c(CNCc3ccc(OC)cc3OC)c(O)c(Cl)cc12,inactive,–
C=C(C)CSc1nc2c(c(=O)[nH]c(=O)n2C)n1CCC(C)C,active: 14.6 µM,–
CCOC(=O)c1ccc(N2C(=O)C=C(N3CCOCC3)C2=O)cc1,inactive,–
CN(C)c1ccc(C(=O)Nc2sc(Nc3ccccc3)nc2C(N)=O)cc1,"inconclusive: 14.6 µM [inhibitor, partial curve]",–
O=C(NC(O)C(=O)c1cccs1)c1cccnc1 (stereo not given),"inconclusive: 16.4 µM [inhibitor, single point]",–
O=C(Cn1cnc2c(nnn2Cc2ccc(F)cc2)c1=O)OCc1ccccc1,"inconclusive: 20.6 µM [inhibitor, single point]",–
CCOc1ccc(OCCC(=O)N(CC)CC(=O)NCc2cccs2)cc1,"inconclusive: 29.1 µM [inhibitor, single point]",–
CCCS(=O)(=O)c1nc(S(=O)(=O)c2ccc(C)cc2)c(N2CCC(C)CC2)s1,"inconclusive: 29.1 µM [inhibitor, single point]",–
CC(=O)Nc1sc(N)nc1-c1ccccc1,inactive,–
Cc1[nH]c2ccccc2c1C(c1ccccn1)N1CCCC1 (stereo not given),"inconclusive: 29.1 µM [inhibitor, single point]",–
CCc1nc2c(OCc3ccc4c(c3)OCO4)cccn2c1N(C=O)Cc1ccccc1,"inconclusive: 23.1 µM [inhibitor, single point]",–
Cc1oc2c(cc(NS(=O)(=O)c3ccc(Br)cc3)c3ccccc32)c1C(=O)OCc1ccccc1,"inconclusive: 5.8 µM [inhibitor, partial curve]",–
COc1ccc(NC(=O)C(c2ccncc2)n2c(=O)c(-c3ccco3)nc3ccccc32)cc1 (stereo not given),"inconclusive: 20.6 µM [inhibitor, single point]",–
O=C(Nc1ccc(C(=O)N2CCOCC2)cc1)C1CCCC1,inactive,–
COc1ccc(S(=O)(=O)NCc2ccc(C(=O)N3CCc4ccccc4C3)cc2)cc1,active: 23.1 µM,–

SMILES,Potency,"activity change, negative = growth inhibition"
O=C(Nc1cccc(C(F)(F)F)c1)c1cc2c(=O)c3ccccc3oc2nc1C(F)(F)F,"inconclusive: 29.1 µM [inhibitor, single point]",–
OC(COc1ccc(Cl)cc1)CN1CCN(c2ccccc2)CC1 (stereo not given),inactive,–
COc1ccc(Cn2c(CCC(=O)Nc3ccc(Br)c(C)c3)nc3cccnc32)cc1,"inconclusive: 23.1 µM [inhibitor, single point]",–
NC(c1ccc(F)c(F)c1)c1nc(-c2ccc3ccccc3c2)cs1 (stereo not given),"inconclusive: 23.1 µM [inhibitor, single point]",–
COC(=O)c1ccc(-n2c(C)cc(C(=O)CSc3ccc(NC(C)=O)cc3)c2C)cc1,"inconclusive: 29.1 µM [inhibitor, single point]",–
COc1cc(OC)c(C(=O)NCc2nc(-c3ccccc3)no2)cc1OC,"inconclusive: 29.1 µM [inhibitor, single point]",–
CCCC(=O)Oc1c(Sc2ccc(C)cc2)c(C)nn1-c1ccccc1,inactive,–
COC(=O)c1ccc2nc(-c3cccc(Cl)c3)c(Cc3ccccc3OC)n2c1,active: 16.4 µM,–
CCOC(=O)C1CCC(CN(Cc2ccc(OC)cc2)S(=O)(=O)c2ccc(C)cc2)CC1 (stereo not given),active: 20.6 µM,–
C/C(=N\NC(=O)c1cc2c(s1)CCC(C)C2)c1cccnc1 (stereo not given),"inconclusive: 29.1 µM [inhibitor, single point]",–
COc1ccc2[nH]cc(CCNc3nc(-c4cccc(C#N)c4)nc4ccccc34)c2c1,"inconclusive: 18.4 µM [inhibitor, single point]",–
CC(=O)Oc1cc2c(cc1Cl)C(c1cccs1)CC1(CC(C)(C)NC(=S)N1)O2 (stereo not given),active: 8.2 µM,–
CC1Cc2cc(S(=O)(=O)CCC(=O)Nc3cccc(F)c3)ccc2N1C(=O)C1CC1 (stereo not given),"inconclusive: 20.6 µM [inhibitor, single point]",–
COC(=O)[C@@]1(Cc2ccc(OC)cc2)[C@H]2c3cc(C(=O)N4CCCC4)n(Cc4ccsc4Br)c3C[C@H]2CN1C(=O)c1ccccc1,"inconclusive: 23.1 µM [inhibitor, single point]",–
COc1ccc(SC[C@H](C)CN2CC[C@H](O)CCC2=O)cc1,"inconclusive: 11.2 µM [inhibitor, single point]",–
O=C(CCS(=O)(=O)c1ccc(Br)cc1)NCCC1=CCCCC1,inactive,–
O=C(OCC(=O)N1CCN(Cc2ccccc2)CC1)c1ccc(Cl)cc1,"inconclusive: 16.4 µM [inhibitor, single point]",–
C/C(=C\C(=O)c1c(O)cc(C)oc1=O)N(C)C,"inconclusive: 29.1 µM [inhibitor, single point]",–
O=C(Cn1ncn2c(cc3cc(F)ccc32)c1=O)NC1CCCCC1,inactive,–
Cc1ccc(NC(=O)CN(C)S(=O)(=O)c2cccc3cccnc23)c(C)c1,"inconclusive: 29.1 µM [inhibitor, single point]",inconclusive: -32.3% [inhibitor]
CCn1cc(CCC(=O)NCc2cccc(OC)c2OC)c2ccccc21,active: 18.4 µM,–
C=CCN(c1ccc(F)cc1)S(=O)(=O)c1cc(C(=O)OCC(=O)N(C)C2CCS(=O)(=O)C2)ccc1Cl (stereo not given),inactive,–
Cc1ccccc1S(=O)(=O)NCC1CCCO1 (stereo not given),inactive,–
